{"source": "the supplement of paper PMC11417369", "note": "± gives the standard deviation of the averaged measurements. The list shows a part of the results."}
{"test_system": "PfAP2-I AP2 domain 3 (GST-tagged)", "experiment": "gcPBM binding intensity (ln(normalized median fluorescence intensity)); higher = stronger DNA binding", "procedure,_shortened": "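For binding intensity, the highest Masliner-normalised natural-log median intensity across replicate spots of either probe orientation was taken. Protein bound to the array was stained with Alexa488 anti-GST antibody and scanned at 488 nm. The protein, GST-tagged P. falciparum DNA-binding domains from E. coli at about 25 μg on average, had been applied for 1 h to an Agilent 4 × 180k array of primer-extended double-stranded 36-bp intergenic genomic probes and negative controls.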"}
{"sequence": "TAAAAAACTTCGTGTTCACACATGTACTATATTATT [CACACA_site4796]", "gcPBM binding intensity (ln)": "7.71 ± 0.43"}
{"sequence": "ACCCATAAGATAATTACACACAATACATCCCTATAT [CACACA_site5262]", "gcPBM binding intensity (ln)": "7.83 ± 0.67"}
{"sequence": "TTTTTTTTTTTTTGTTGTACATTAAATATATTATTA [XGTACX_site7254]", "gcPBM binding intensity (ln)": "8 ± 0.76"}
{"sequence": "TGAATGTAAGAAAATACACACTAGTATAGTAACACC [CACACA_site5131]", "gcPBM binding intensity (ln)": "8.14 ± 0.73"}
{"sequence": "TTTTTATTACTTCTCTGTACTCAGGAAAATAAATAT [XGTACX_site2092]", "gcPBM binding intensity (ln)": "7.9 ± 0.44"}
{"sequence": "TTGATTATAATTAGTACACACAAAATACATGCGGGG [CACACA_site2277]", "gcPBM binding intensity (ln)": "8.92 ± 0.21"}
{"sequence": "AAATATATAATACATATGTAATATGCATATATATAT [GTGCAC_negctrl_site450]", "gcPBM binding intensity (ln)": "9.05 ± 0.34"}
{"sequence": "TAAAATAAAACAAACACACACACACCCCCACAAAAA [CACACA_site3850]", "gcPBM binding intensity (ln)": "10.4 ± 0.19"}
{"sequence": "TATTTACATGTAAAAGGTACACACATTATATATACA [XGTACX_site2157]", "gcPBM binding intensity (ln)": "7.93 ± 0.3"}
{"sequence": "TTTATTATTTTTTGTAGTACTTTATATAAAAGTTCT [XGTACX_site4494]", "gcPBM binding intensity (ln)": "8.07 ± 0.31"}
{"sequence": "ATACACTTTTATATATCAATACATTATGTATTAAGT [CACACA_negctrl_site421]", "gcPBM binding intensity (ln)": "7.88 ± 0.53"}
{"sequence": "CCTCTTTATTTTAATTGTACATTTTTGTAGGTTTTT [XGTACX_site7130]", "gcPBM binding intensity (ln)": "8.19 ± 0.66"}
{"sequence": "TCCTTTTTTTTGTAATGTACTTAGTTTGGTTATATG [XGTACX_site8208]", "gcPBM binding intensity (ln)": "7.84 ± 0.57"}
{"sequence": "ATGTATATATATATATGTACTAATTAGTAATTTACG [XGTACX_site6276]", "gcPBM binding intensity (ln)": "7.87 ± 0.32"}
{"sequence": "AAAACAAACCCATTTACACACATAAATAAATCAATT [CACACA_site6126]", "gcPBM binding intensity (ln)": "7.67 ± 0.48"}
{"sequence": "AAAAAGAAGATATATACACACCAAAAAAAAAAAAAA [CACACA_site7471]", "gcPBM binding intensity (ln)": "8 ± 0.55"}
{"sequence": "AATATATATATACATACATGCATACATATATATATA [TGCATGCA_site784]", "gcPBM binding intensity (ln)": "9.4 ± 0.3"}
{"sequence": "GGATAGATCATTTACACACACAAAAAAAAAAAAAAA [CACACA_site2139]", "gcPBM binding intensity (ln)": "8.04 ± 0.56"}
{"sequence": "ATAATATATTATTATAGTACTTTATTTTATTTTATG [XGTACX_site2387]", "gcPBM binding intensity (ln)": "7.67 ± 0.49"}
{"sequence": "TAAGGAAAAAGAAAAAGTACATTATATAATAAATAG [XGTACX_site3282]", "gcPBM binding intensity (ln)": "7.89 ± 0.66"}
{"sequence": "AAAAAAAATAAAATGAATAAATAAGAATTACATATT [CACACA_negctrl_site863]", "gcPBM binding intensity (ln)": "7.39 ± 0.65"}
{"sequence": "CAAATATATGTTTTCACACACAAAAGAAATGAAACC [CACACA_site2162]", "gcPBM binding intensity (ln)": "7.86 ± 0.65"}
{"sequence": "TTGTATAAATATGTATGTATATAATATATGTAAAGA [TGCATGCA_negctrl_site93]", "gcPBM binding intensity (ln)": "8.01 ± 0.58"}
{"sequence": "CACATACACATACACATACACACGCATAGAAACATA [CACACA_site2136]", "gcPBM binding intensity (ln)": "8.65 ± 0.78"}
{"sequence": "AAATCGTGTACATTGACACACATAATTTTTTTTATA [CACACA_site2463]", "gcPBM binding intensity (ln)": "8.09 ± 0.38"}
{"sequence": "AATATATTTATATAGTGTACATTTTTTATATATGTA [XGTACX_site8142]", "gcPBM binding intensity (ln)": "7.67 ± 0.18"}
{"sequence": "TATTAATTTTTATTATGTACATAAATAATTTATATT [XGTACX_site5456]", "gcPBM binding intensity (ln)": "7.7 ± 0.28"}
{"sequence": "ATATGATGTAAAAGCACACATATATATATATATATA [CACACA_site4018]", "gcPBM binding intensity (ln)": "9.51 ± 0.37"}
{"sequence": "TACTATAAAATGGAATGTACACATAAATATATCTAA [XGTACX_site6137]", "gcPBM binding intensity (ln)": "7.83 ± 0.46"}
{"sequence": "GTTTATAACTATGTGTGTACACATTAATCGTTTTTC [XGTACX_site4364]", "gcPBM binding intensity (ln)": "8.19 ± 0.3"}
{"sequence": "AGGATAATATACAAAAGTACATAAAACTAAAAAAAC [XGTACX_site605]", "gcPBM binding intensity (ln)": "8.21 ± 0.59"}
{"sequence": "AAAGAAAGAAAGAATACACACACACCGATATATATA [CACACA_site9246]", "gcPBM binding intensity (ln)": "8.33 ± 0.68"}
{"sequence": "AACATATATTTTGAAACACACACATATATAATATAC [CACACA_site8301]", "gcPBM binding intensity (ln)": "7.86 ± 0.59"}
{"sequence": "AATGTGTATATATATACACACACATATATATATTTT [CACACA_site8596]", "gcPBM binding intensity (ln)": "7.89 ± 0.49"}
{"sequence": "TCCTTTTTACTACTAGTGCATTATTTACAAGGTCCG [GTGCAC_site9441]", "gcPBM binding intensity (ln)": "11.4 ± 0.68"}
{"sequence": "ATATATATAAAATATTATATTAAAAAAAATAAAATA [GTGCAC_negctrl_site87]", "gcPBM binding intensity (ln)": "7.51 ± 0.57"}
{"sequence": "TAGTTTTTTATATATTGTACTTAGAATATATTATAT [XGTACX_site3662]", "gcPBM binding intensity (ln)": "7.66 ± 0.3"}
{"sequence": "ATATAAATATATATATGTACATAATATATTATGTTT [XGTACX_site2806]", "gcPBM binding intensity (ln)": "7.64 ± 0.32"}
{"sequence": "AATTTAACCACTAAAAGTACACACATATATACATAT [XGTACX_site8352]", "gcPBM binding intensity (ln)": "8.28 ± 0.31"}
{"sequence": "GGACACCTTCAAAACACACATACAAATAAATAGAAA [CACACA_site3305]", "gcPBM binding intensity (ln)": "7.67 ± 0.54"}
{"sequence": "AATAGTTCTTGAACGTGTACATAAAATATAATTTAC [XGTACX_site11]", "gcPBM binding intensity (ln)": "7.79 ± 0.5"}
{"sequence": "TTCTATTTTTTAAAAGTGCATATTATAAATATATAT", "gcPBM binding intensity (ln)": "9.63 ± 0.11"}
{"sequence": "GAATAATCCAAACACACACACACACCCGAATAAATA [CACACA_site482]", "gcPBM binding intensity (ln)": "8.21 ± 0.028"}
{"sequence": "GAAATCTAAATAGAAACACACATATATAAATAAATA [CACACA_site7762]", "gcPBM binding intensity (ln)": "7.41 ± 0.59"}
